PubChem BioAssay AID1508624 (National Center for Advancing Translational Sciences (NCATS), 2021)
“And” between values parts separate entries of the source, which are not always exact repeats. Equal entries are not always repeated. Out of some 48,000 compounds screened, about 120 (0.25%) were called active. Not shown: some 4% with an inconclusive outcome. The call rests on the fitted dose curve; in most records, active means well fitted activation curve with a large enough effect; inconclusive means small, poorly fitted or top-dose-only effect, or another doubt; inactive means no such curve, though single readings can be large or run the other way. This is one part of the list.

Test: Primary qHTS for Identification of Small Molecule Activators of Huntingtin-Antisense Promoter Activity; further: nearly all actives have a fitted effect of over 55% in size
Conditions: HEK293 HTT-AS promoter firefly luciferase reporter, 24 h; at 57.5 µM (top of the series) unless noted
Procedure, shortened: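 Luminescence was read after Dual-Glo reagent and a 10 min room-temperature incubation. Values were normalized to vehicle (0% activity) and zero RLU (-100% activity). Reporter HEK293 cells had been exposed to compounds (up to 57.5 uM final) for 24 h.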

| SMILES | activity change, positive = activation |
| --- | --- |
| OC(O)C(Cl)(Cl)Cl | inactive: 0.285% |
| CNC(C)(C)Cc1ccccc1 | inactive: -4.87% |
| CCOP(=S)(OCC)Oc1cc(C)nc(C(C)C)n1 | inactive: -4.96% |
| c1ccc(C2CC2)c(OCC2=NCCN2)c1 | inactive: -8.3% |
| Cc1cccc(-n2c(/C=C/c3cn(C)c4ccccc34)nc3ccccc3c2=O)c1 | inactive: -31% |
| COCC(=O)N(c1c(C)cccc1C)C(C)C(=O)OC (stereo unspecified) | inactive: -5.58% [at 57.5 µM, percent change from vehicle, -100% = no light] |
| Cc1ccc(-c2nc(CN3C(=O)CN=C(c4ccccc4)c4cc(Cl)ccc43)c(C)o2)cc1 | inactive: -27.1% [at 57.5 µM, percent change from vehicle, -100% = no light] |
| Cc1cc(NC(=O)c2cccn(Cc3cccc(Cl)c3)c2=O)no1 | inactive: -14% [at 57.5 µM, percent change from vehicle, -100% = no light] |
| O=C(O)CCCOc1ccc(Cl)cc1Cl | inactive: 2.68% [at 116 µM] |
| O=C(COc1cccc(Cl)c1)N1CCN(CCc2ccncc2)CC1 | inactive: -16.4% |
| CCCN(CCC)c1c([N+](=O)[O-])cc(S(N)(=O)=O)cc1[N+](=O)[O-] | inactive: -40.8% [at 116 µM] |
| CC(=Cc1csc(C)n1)[C@@H]1C[C@H]2O[C@@H]2CCC[C@H](C)[C@@H](O)[C@@H](C)C(=O)C(C)(C)[C@@H](O)CC(=O)O1 | inactive: -29.2% |
| Cc1ccc(Cn2cccc(C(=O)Nc3cc([N+](=O)[O-])ccc3C)c2=O)cc1 | inactive: 0.461% [at 57.5 µM, percent change from vehicle, -100% = no light] |
| O=S1(=O)N(Cc2ccccc2)CCCN1Cc1cccc(Cl)c1 | inactive: -19% |
| CNCC(O)c1ccc(O)cc1 (stereo unspecified) | inactive: -14.4% and inactive: 1.38% |
| CC(C)NCC(O)c1ccc(N)c(C#N)c1 (stereo unspecified) | inactive: -4.06% |
| CCC(OC(C)=O)C(CC(C)NC)(c1ccccc1)c1ccccc1 (stereo unspecified) | inactive: -28.3% [at 116 µM] |
| CC(Cc1ccccc1)NCCCCl (stereo unspecified) | inactive: -1.66% |
| N#Cc1cc2c(nc1SCC(=O)Nc1ccc(OC(F)(F)F)cc1)C1CCN2CC1 | inactive: -51.1% |
| O=C(COc1ccccc1Cl)N1CCN(CCc2ccncc2)CC1 | inactive: -21.9% |
| O=C(CCc1nc(C2=CCN(Cc3cccc(Cl)c3)CC2)no1)Nc1ccccc1F | inactive: -12.7% |
| C[C@]12CCC(=O)C=C1CC[C@@H]1[C@@H]2CC[C@@]2(C)[C@H]1CC[C@]2(C)O | inactive: -26.5% |
| CCS(=O)(=O)C(C)(C)S(=O)(=O)CC | inactive: -13.7% |
| CN(C)CCc1c[nH]c2cccc(OP(=O)(O)O)c12 | inactive: -16% [at 116 µM] |
| Cc1cccc(NC(=O)Cn2cc(C(=O)c3ccccc3)c3ccccc32)c1 | inactive: -45.3% |
| O=c1c2ccccc2nc(/C=C\c2ccc(F)cc2)n1-c1ccccc1F | inactive: -27.6% |

| SMILES | activity change, positive = activation |
| --- | --- |
| O=c1[nH]c2cc(Cl)ccc2n1C1CCNCC1 | inactive: -5.63% |
| c1ccc(CCCN2CCN(CCOC(c3ccccc3)c3ccccc3)CC2)cc1 | inactive: -28.5% |
| CC(=O)NS(=O)(=O)c1ccc(NC(=O)c2cccn(Cc3ccc(Cl)cc3)c2=O)cc1 | inactive: -11.1% [at 57.5 µM, percent change from vehicle, -100% = no light] |
| COc1ccc(OCC(=O)N2CCN(Cc3cc(=O)n4nc(-c5ccccc5C)sc4n3)CC2)cc1 | inactive: -19.3% |
| Clc1cccc(SC2CCNCC2)n1 | inactive: -1.54% |
| CCOC(=O)c1ncn2c1CN(C)C(=O)c1c(I)cccc1-2 | inactive: -0.0584% |
| O=C(O)Cc1ccccc1 | inactive: -8.12% |
| COc1ccc(C(=O)c2c(C)n(CCN3CCOCC3)c3ccccc23)cc1 | inactive: -2.35% and inactive: -31.5% |
| c1cc2c(c(N3CCNCC3)c1)OCCO2 | inactive: -3.6% |
| CN1C(=O)[C@@H](NC(=O)c2cc3ccccc3[nH]2)N=C(c2ccccc2)c2ccccc21 | inactive: -45.6% |
| NP(N)(=O)NC(=O)c1ccc(F)cc1 | inactive: 2.15% |
| O=c1c2ccccc2nc(/C=C/c2cccc3ccccc23)n1-c1ccccc1Cl | inactive: -10.6% |
| CC[n+]1c(-c2ccccc2)c2cc(N)ccc2c2ccc(N)cc21 | inactive: -37.8% |
| COc1ccc(Cl)cc1NC(=O)CN1C(=O)CN=C(c2ccccc2)c2cc(Cl)ccc21 | inactive: -44.1% |
| Cc1ccc(-n2c(/C=C/c3ccc(Br)s3)nc3ccccc3c2=O)cc1 | inactive: -28.5% |
| CCCCC1C(=O)NC(=O)N(C2CCCCC2)C1=O (stereo unspecified) | inactive: -10.2% |
| Cc1cccc(-n2c(/C=C/c3ccccc3O)nc3ccccc3c2=O)c1 | inactive: -38% |
| CCc1ccc(NC(=O)c2cccn(Cc3cccc([N+](=O)[O-])c3)c2=O)cc1 | inactive: -16.3% |
| Cc1[nH]nc2ccc(-c3cncc(OC[C@@H](N)Cc4c[nH]c5ccccc45)c3)cc12 | inactive: -43% |
| CO[C@H]1CCC(O[C@H]2C[C@H]([C@]3(C)CC[C@]4(C[C@H](O)[C@@H](C)[C@@H]([C@@H](C)C=C(C)C(=O)[C@H](C)C[C@H](C)C(=O)O)O4)O3)O[C@]3(O[C@@H]([C@H]4O[C@@](O)(CO)[C@H](C)C[C@H]4C)C[C@H]3C)[C@H]2C)O[C@H]1C (stereo partly specified) | inactive: -29.1% |
| O=c1c2ccccc2nc(/C=C\c2ccccc2F)n1-c1ccc(O)cc1 | inactive: -8.04% [at 57.5 µM, percent change from vehicle, -100% = no light] |
| C[C@]12CC[C@H]3[C@@H](CCC4=CC(=O)CC[C@@]43C)[C@@H]1CC[C@@H]2C(=O)O | inactive: -1.46% |
| Cc1c(C(c2ccc(Cl)cc2Cl)c2c(O)c3ccccc3oc2=O)c(=O)n(-c2ccccc2)n1C (stereo unspecified) | inactive: -27.5% |
| CCCCc1ccc(NC(=O)c2cccn(Cc3ccc(Cl)cc3)c2=O)cc1 | inactive: -50.4% |
| COc1ccc(C(CN(C)C)C2(O)CCCCC2)cc1 (stereo unspecified) | inactive: 1.19% and inactive: -25.3% |
| Cc1ccc(OCC(=O)N2CCN(CCc3ccncc3)CC2)cc1C | inactive: 0.548% |

| SMILES | activity change, positive = activation |
| --- | --- |
| COc1ccc(C(=O)Nc2ccc(Cl)cc2C(=O)c2ccccc2)c(OC)c1 | inactive: -53.2% [at 57.5 µM, percent change from vehicle, -100% = no light] |
| Cc1ccccc1CN1C(=O)CN=C(c2ccccc2)c2cc(Cl)ccc21 | inactive: -44.8% |
| Cc1ccc(-n2c(/C=C/c3cc(Br)cs3)nc3ccccc3c2=O)cc1 | inactive: -15.1% |
| O=C(Oc1ccc([N+](=O)[O-])cc1)N1CCN(Cc2cccc(Oc3ccccc3)c2)CC1 | inactive: -41.5% |
| CC(C)(C)OC(=O)c1ncn2c1[C@@H]1CCCN1C(=O)c1c(Br)cccc1-2 | inactive: -5.14% |
| Cc1cc(-n2c(/C=C/c3ccc(Br)s3)nc3ccccc3c2=O)ccc1Br | inactive: -41.4% |
| CCN(CC)CCOC(=O)C(O)(c1ccccc1)c1ccccc1 | inactive: -7.78% |
| Cc1cc(-n2c(/C=C/c3cccs3)nc3ccccc3c2=O)ccc1Br | inactive: -16.7% [at 57.5 µM, percent change from vehicle, -100% = no light] |
| CCC(=O)O[C@@H]1C=C2CCC3C(CCC4(C)C3CC[C@@H]4OC(=O)CC)C2CC1 (stereo partly specified) | inactive: -0.473% |
| C[C@H]1CNCCc2ccc(Cl)cc21 | inactive: -7.37% |
| C[C@]12C/C(=C/O)C(=O)C[C@@H]1CC[C@@H]1[C@@H]2CC[C@@]2(C)[C@H]1CC[C@]2(C)O | inactive: -13.9% |
| Cc1ccc(Cn2cccc(C(=O)Nc3ccc4c(c3)OCO4)c2=O)cc1 | inactive: -4.51% [at 57.5 µM, percent change from vehicle, -100% = no light] |
| CC1=NN=C(c2ccc(N)cc2)c2cc3c(cc2C1)OCO3 | inactive: -5.56% |
| C=C1C[C@@H]2[C@H](CC[C@]3(C)C(=O)CC[C@@H]23)[C@@]2(C)C=CC(=O)C=C12 | inactive: -3.74% |
| CNC(C)Cc1ccccc1OC (stereo unspecified) | inactive: -17.2% |
| COc1cccc(NC(=O)Cn2cc(C(=O)c3ccccc3)c3ccccc32)c1 | inactive: -36% |
| CCCOc1ccc(C2SCC(=O)Nc3c2c(C)nn3-c2cccc(C)c2)cc1OC (stereo unspecified) | inactive: -28.4% |
| COc1ccccc1N1CCNCC1 | inactive: -7.65% |
| Cc1cccc(Cn2cccc(C(=O)Nc3ccc4c(c3)OCCO4)c2=O)c1 | inactive: -7.35% |
| CC(=O)[C@H]1CC[C@H]2[C@@H]3CC[C@H]4C[C@H](O)CC[C@]4(C)[C@H]3C(=O)C[C@]12C | inactive: -10.5% |
| CCN(CC)CCSc1nc2ccccc2c(=O)n1-c1ccc(Cl)cc1 | inactive: -9.27% [at 57.5 µM, percent change from vehicle, -100% = no light] |
| CCOc1ccc(NC(=O)Cn2cc(C(=O)c3ccccc3)c3ccccc32)cc1 | inactive: -19.3% |
| COc1ccc(C)cc1NC(=O)N(Cc1ccc2c(c1)OCO2)C1CCN(Cc2ccccc2)CC1 | inactive: -29.5% |
| CC(=O)O[C@@]12CO[C@H]1C[C@H](O)[C@@]1(C)C(=O)[C@H](O)C3=C(C)[C@@H](O)C[C@@](O)([C@@H](OC(=O)c4ccccc4)[C@@H]21)C3(C)C | inactive: -16.2% |
